The full ranking holds about 33,000 sequences; the median of “E-score (-0.5 to 0.5)” is about -0.056, and the highest 2% start at about 0.38. The list shows a part of the results.
Molecular target: Stb4 (UniProt P50104)
Experiment: PBM E-score (8-mer binding enrichment) (E-score (-0.5 to 0.5)); higher = stronger / more preferred TF binding; most listed sequences are background and not binding sites
Settings: protein concentration: 200 nM; construct: GST-DNA-binding domain
Experimental: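 Universal 'all 10-mer' protein binding microarrays (Agilent AMADID 015681) probed with GST-tagged S. cerevisiae TFs (full-length or DBD) made by in vitro transcription/translation (PURExpress), about 100-200 nM. Bound TF was detected with fluorescent anti-GST. Each ungapped 8-mer (which stands for itself and its reverse complement) is scored by the PBM enrichment score (E-score), a modified Wilcoxon-Mann-Whitney statistic from -0.5 to +0.5, computed with the Universal PBM Analysis Suite. Scale: above 0.35 generally sequence-specific binding.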

Row | Sequence | PBM E-score
1 | ATGTGTTA | -0.199
2 | CTCCCCAG | -0.192
3 | GCGACCAA | -0.183
4 | CGCGTAAA | 0.0289
5 | AACGGCAA | 0.0937
6 | CATTCATA | -0.0352
7 | ACCCTAAG | -0.185
8 | CCCGGTAC | 0.247
9 | CCTGCACA | -0.208
10 | ATGCATAA | -0.243
11 | CTTGGTGC | -0.201
12 | ATGCATCC | 0.0963
13 | GAATCCTA | 0.00817
14 | TCAACACA | -0.197
15 | AGTCCAAT | 0.0202
16 | CTCAATAA | -0.0997
17 | CTCCTCAC | -0.146
18 | GTAGTCCA | -0.0809
19 | GCGCGGCA | 0.154
20 | TACCGTAA | 0.0568
21 | AAAGGGTC | -0.0434
22 | AGGGCACG | -0.0855
23 | GCTATCGA | -0.0697
24 | ACCCTCTA | -0.324
25 | ATCCGGAA | 0.436

Row | Sequence | PBM E-score
26 | AACGACAC | -0.0524
27 | ATAGTCCC | -0.0622
28 | AACTGCGT | -0.294
29 | ACATGGAT | -0.183
30 | CATCTTTA | -0.0825
31 | AAAATTAT | 0.067
32 | ATCTTCAT | 0.0298
33 | CTTGTTTC | -0.134
34 | GATGAACA | -0.021
35 | CCTCGTGC | -0.0632
36 | CAAGCGAC | -0.148
37 | GCTTAGCA | -0.0884
38 | ACTCATAG | -0.0865
39 | CCTCGGAA | 0.484
40 | GCACTAGA | -0.0878
41 | ATACGTTA | -0.293
42 | AACGATAG | 0.015
43 | ATCAGAGC | -0.0707
44 | CTAGCCCC | -0.0513
45 | ACCTGCTA | 0.0269
46 | AGTTGAGG | 0.0277
47 | ACTTATCC | 0.275
48 | AAGGTTTC | -0.0293
49 | GCCTGGAC | -0.0755
50 | ATTGAATC | -0.153

Row | Sequence | PBM E-score
51 | AGAGAAGG | -0.0976
52 | ATTTCACG | 0.133
53 | AGACTAAG | -0.154
54 | GAGCTTGA | -0.136
55 | CGGAACCC | 0.359
56 | GGAGTCAC | 0.0653
57 | GCCTTTCA | -0.114
58 | GTCCGCAA | 0.0958
59 | ATGGCAGG | 0.0505
60 | AGACAAGG | -0.118
61 | ACTATGAA | -0.193
62 | ATGGGCGA | -0.079
63 | CGCAGCTC | -0.13
64 | AGGTCGCG | 0.0154
65 | CGAGAGGC | 0.113
66 | ACCTACCA | -0.174
67 | GCGTCTAA | -0.109
68 | AAATACTC | 0.121
69 | ATGGCGGG | 0.259
70 | CGCTAGAA | -0.154
71 | CGGCAGCA | 0.257
72 | CGACTTCC | 0.101
73 | GCGCTTAA | -0.18
74 | TCGTGGCA | -0.255
75 | ACACTGGA | -0.105

Row | Sequence | PBM E-score
76 | GCTGTATA | -0.288
77 | AACGCCGT | -0.0885
78 | AATCAGCG | 0.048
79 | CCTATTGC | -0.0913
80 | AAATACCT | -0.0131
81 | GCATGGGA | -0.0392
82 | AAATTCTC | -0.0141
83 | CGACCTGA | -0.127
84 | GATCCCAA | -0.0342
85 | ATAACTTC | 0.0791
86 | GCCACTGA | -0.115
87 | CCCTTGAG | -0.134
88 | GAAGGTTA | 0.0955
89 | AAGGAGGA | -0.124
90 | CCATAACG | -0.0859
91 | GGAAAATA | 0.211
92 | GAGCCTGA | -0.181
93 | AACGTCTA | -0.181
94 | GACATACA | 0.0632
95 | ACTAACTG | -0.111
96 | GCCAGAGA | -0.0545
97 | CATGAGGG | 0.0385
98 | GTAGAGGA | -0.0967
99 | CATTTGTC | -0.0746
100 | CATACTGA | -0.0487

Row | Sequence | PBM E-score
101 | ACCCTCGG | 0.426
102 | ACTTAGGG | -0.0175
103 | CGGTTTGC | 0.2
104 | AAAGATTG | -0.192
105 | GGGCGGCA | 0.294
106 | CTGAATCC | 0.0406
107 | AGCCTCAG | -0.23
108 | CCGAGCGG | 0.431
109 | AGGAATCG | 0.0767
110 | CATGGTGC | -0.125
111 | GTCATTTA | -0.171
112 | ACCGCGAT | 0.0549
113 | AGGCGATC | -0.288
114 | AAGATCCC | 0.126
115 | GGATGAGA | 0.0903
116 | CGTGGTGC | -0.135
117 | ATTGGTGA | -0.253
118 | ATTACACA | -0.13
119 | GAGTTCAA | -0.09
120 | CCACATGC | -0.341
121 | CAGGAGCA | -0.163
122 | GCGGCCGA | 0.217
123 | CATCGTCC | 0.0921
124 | AAGACTGC | -0.178
125 | TAAATAGA | -0.0801

Row | Sequence | PBM E-score
126 | AGCGACTG | -0.244
127 | ACACAGCA | -0.223
128 | CACCGCGC | -0.205
129 | AAGTTTAG | -0.0741
130 | AGGGTTTG | 0.0369
131 | ATCACACG | -0.0114
132 | ATTCTGAA | -0.0395
133 | CGGTTTGA | 0.0261
134 | AGATTCTC | 0.0482
135 | AACAATAG | -0.192
136 | CTGATCAG | -0.0422
137 | CGTATCAA | -0.0516
138 | GCACTTGA | -0.167
139 | ATCACGAC | -0.123
140 | TGATTCCA | -0.116
141 | ACACCTTA | -0.186
142 | ATGCGCTC | -0.116
143 | CACATGTC | -0.103
144 | ATTGTCGA | -0.0736
145 | ACATAAGA | -0.0778
146 | AATGCAGG | -0.0758
147 | AACAGACA | 0.0223
148 | AACAGCAG | -0.134
149 | AGATGCAA | -0.386
150 | CAATTCCG | 0.372

Row | Sequence | PBM E-score
151 | GACAGACC | -0.0234
152 | AGAGTCCT | -0.165
153 | GATCCTGC | -0.148
154 | CACTTATG | 0.0528
155 | GACCCAGA | 0.0584
156 | CCCGAAGC | 0.371
157 | TACTGCCA | -0.111
158 | TCTTCTCA | -0.00347
159 | CGCGGGAG | 0.172
160 | ATTAAAAC | 0.0963
161 | GCGCCAAC | -0.121
162 | ACCAGAGT | -0.324
163 | ATGCGCCG | 0.244
164 | CAGGAGCC | -0.0422
165 | AGTGCGCA | 0.0691
166 | ACTACGAT | -0.0781
167 | AGGTTGGC | -0.205
168 | GTGGCACA | -0.176
169 | AGTGTACC | -0.0875
170 | CTGGTTCC | 0.147
171 | GCCGGCGC | 0.317
172 | CTTTTTTC | -0.0005
